According to the supplement of paper PMC10681739:
± gives the standard deviation of the averaged measurements. Whole data set: some 4,000 sequences, median “arbitrary fluorescence units” near 830, cut for the highest 2% near 6,500. The list lacks most of the strong results.

Molecular target: RUNX1 (UniProt Q01196)
Assay: RUNX1 binding intensity (PBM fluorescence), RUNX1 alone (arbitrary fluorescence units); higher = stronger binding
Details: RUNX1 concentration 2 nM; ETS1 concentration 0 nM
Method: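 gcPBM on 36-bp genomic-derived probes (partner site mutated) containing one RUNX1 site and no ETS1 site. Recombinant human RUNX1 (2 nM) was incubated alone or with ETS1 (25 nM) and detected by anti-RUNX1 antibody fluorescence. Values are medians over 4 replicate spots (not normalised). The probes sit in constant array flanks that are not printed.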
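Note: Full-length recombinant human RUNX1 bound to double-stranded DNA microarray spots, detected with an Alexa488-labelled secondary antibody after the anti-RUNX1 primary, read as scanned spot fluorescence.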

Chain of UniProt Q01196 (Q01196 whole entry): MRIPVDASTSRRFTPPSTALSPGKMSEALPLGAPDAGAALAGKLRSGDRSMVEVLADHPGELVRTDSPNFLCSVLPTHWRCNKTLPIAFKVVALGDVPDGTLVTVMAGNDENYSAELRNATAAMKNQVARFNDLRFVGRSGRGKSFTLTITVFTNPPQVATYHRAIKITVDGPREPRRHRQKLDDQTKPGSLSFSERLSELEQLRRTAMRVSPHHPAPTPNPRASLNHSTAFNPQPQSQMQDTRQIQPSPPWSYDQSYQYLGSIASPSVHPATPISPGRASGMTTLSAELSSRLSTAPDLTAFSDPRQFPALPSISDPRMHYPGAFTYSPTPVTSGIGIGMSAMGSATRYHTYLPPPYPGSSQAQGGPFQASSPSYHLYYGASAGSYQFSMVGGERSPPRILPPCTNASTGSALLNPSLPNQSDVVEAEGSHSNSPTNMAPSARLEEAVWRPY

Sequence | RUNX1 binding intensity
ACCGGAGTGTGGTGGTAAACCTTTTCCAGCCTTCCA | 791
AAAACAAGGACTTTCGCCTCCCTGCGGTCCCTCCCC | 930
CAGGGAGCGGGCTGAACCTTTCTACCGCGTCTCTAG | 734
GGAACAGAAAGCGGCAGAAATAGCAGCCACCGCGGC | 760
CCTGCTGCTTCGGCCCGGAGTTGTTGTGGGCTCCAG | 763
CTAGCCTGTGGTTTTTCTGAGAATGCAGGCTATGTA | 2680
GATATGGCAGGCAGTAGGGCCTGGAAACCGCACGGC | 944 ± 26
ATGCCTGTGGTCCCAGCTACACATGAAGCTGAGGTG | 763
TTACTTCTCATGAAGCGCTGTGGGGCTGGGGTTGCT | 757
CAGACACGATGACAGCTGGCTGGCCCGCAGCACCTC | 796
GACAACCTACCACAGCCTTCCTTTCGGGCGCTCAGG | 1040
GCTGAGTGCGGGTGGCCTGGGCCGAAGGCTCAGCGG | 724
GCTCCGCTTACGGGAGGCGGGGCTTCTGCGGGTTCC | 698
GCACACCACAAAGCCCTATTAAGACATGAAGCCAGA | 1130
CCTGTGGTTGCAAAGATGCTCTAACAGCAAGTGGGT | 816
GAAGCGATATGTCCTCCTGGGGTTGACCGCCCCGTG | 796
ACAGTGTGGTTGTGTTTTCTGTGCATCACCTCCCTG | 884
GTGGCGAAAGTGCAGATGCGAAACCGCTGGCTCGGC | 751
GGTTGGTTTGACCACGCCAGTTCGGCCTTCGCCTGC | 795
CTTTGCTGCAGCATGTTCTAACCACAAGCCCAGGAG | 2100
CTGCTTACGGCCCCGGGGTTCGCTACCCCACAATCC | 926
GCCACCGTATTTGCGCGTTTTTCGCGGTAGGCGGGA | 781
GAATCTGATGCAACCGCCGCCCCGGGAGTCGCGCCC | 731
CGGGTTGGGCAGGGAGCAGCATGACCGCAGTGGGTC | 916
GGACTGCCTGAAGCCAGATCGGTTTACCACAGTCAG | 777
GATACTCTTTCTGTCATCCCATCCCCACAGCCTTAG | 1470
CTGCCGCTTGCTGGGCTGAGTCCGCCCGCGGTCCCG | 696

Sequence | RUNX1 binding intensity
CAGGGATTCAGGCTGAGTGCGGCCCCCGCAGCCTCC | 795
CCCAGATCCCGTGAGTCACCAGGTCCCACAAACCCT | 921
CGCCTTGCGCCATCTTCTTCCACTAGCGGTAGGGGA | 848
CACCCTTCAGGCGGTGGCGGGCCTCGGTAACCGCCC | 834
CCCGCCACCACAGAAGAGCCAATCGGCAGCTCTGGG | 911
AGCCACGGACTTTCGCCTACAGGTCGCCGCAGGTCC | 743 ± 40
AGCGCCTTACCCGCGGCACACCCATTTGCTGACCCC | 1120
CCACCACGAGTGGTTTCTGACCTCTTCATGCCACTG | 1040
TCCAGCGGTAATAATCACACACACCTCCTCTTAATC | 1070
GCCGGCGGCCGAAAGTCTATCCCGCAGAAGCGCAGC | 804
CCCAGGCTCCCGGGTTGAATATGTGGGCTGAGGCGA | 734
ACAATAACAGGCAGTGGTGGGGACTGCGGTGACCTG | 814
GGCCGGGGACCGAAGGCGGGCCCGCAGCAGATCCTG | 700
CCGCCACGGCCGCAGCCATCTCCACCGTAAGAATGG | 906
CAGTTTGCGGCACTGTTGTCATTCCCGGGGTAAGAT | 775
CCTGACCTCTGTGGGAACACACAGGCAGTGGTTCAT | 858
GAACCTTGGCGCGGTGACGCTAGTTTTCGGCGGGCT | 709
CCCGGCAGCTGATAGCGCCTGCGGGTCGCAGCAAAT | 705
TCTCCCTGAACTGCTCCTTCACCATGATGACCGCTG | 969
GAAGTGGGTTAAGGAGCTGCACTGCTCCCTGCCCCC | 820
GGACGCATGAAGGGGTGGAGTCACCACAGGAGGTAG | 788
AACCCGGGAGTGGACACGGAGCTCGGCTGCGGCTCC | 666
GCCGTCACCTCCGTCATTCAAACCGCCCGCCAATGG | 1290
GAGGCCCAGGGTGTGGCTGGAGGCCTGTGGTGGGAC | 720
AACGTCCTCATTTCTCCAACTGTCCAGCCACAGAAA | 1580
CTGAAGAGGACATGTATTCCTCATGTTGTGGTTGGC | 732
AGCTTGCGCTGGAAGTCTGCGGCAGGAGGGCGTCCT | 714

Sequence | RUNX1 binding intensity
TCTCAAACGAAGGGAAAGCTTGGCCCGCAGCACCCA | 735
TCCCAGGAACCACAGTGGGACAGCAAGTGACAGCCA | 836
GCCAACAGTGGTTTCGCCCCGCTCCCTGCGCCCCGC | 941
TGACATGGCTTCGGCCTTGGGCTTTGTGGTCTCCCA | 835
AGGCCCGAATACCCGCCCCCAAAACCGCGTCCACAA | 1060
AAGTGAGGCGGTTACCTCGGCGCCTTTTCCAGCAGC | 711
GACCGGACTCCCGGCTGGTCTGTGGGGTTTCGGGTT | 1350
CTGTTGTGGTTGCTGCGACAATGCTCCAGCAAGGGT | 1580
AAAGGGAGGTTGGCGGGAGTTCAAAACCACCGGGGC | 781
AGGACTGTGGGTTAGCTGCTCTGGGAGGTGGCTGGG | 767
TCTGAGCTCCCCACAGCACCGGCACTGGGTTTAGCT | 698
GGTACTTGCGGCTGAGCCAGCTGAAGAACGCCGGGA | 757
ACACTGGGACGTGCCATGGCCAGCGGTTTCTTGCAA | 759
CGGGCACGTCCTACCGCAGCAACGTGCGCCGCGCCG | 911
CGGGGTTGCCTGGTGGCTGCGAGCGGTGGGGACGGC | 757
CAACAAGAGGAGATCAGAAACACTGAAGCCACAGCT | 733
CGAGCTCGGTGTGCCGCTTTTTGTGGGCCGGGTGGG | 784
GGCATCCCCTTGCGGCCATCACTTTCTATGCCCTCA | 1250
AAGAGCAACATTGCCGCAGCACTTCAGGGACGTCGT | 690
CCGGCGGCCCGCAGTGCATGCCGGCAAACGTAGTTC | 710
TCCCAGCAACCACCTCAGCTGGCGCGCGGAGAACCC | 834
GCCTTACTGCCGCAAACGTCAATTCCTTCGGCCGCT | 1150
CATGTGAACAGGGACCACAGACTTCCAACCTAAGAC | 835
CTTCTAGGCAATGTAGTTCCTGGGCCCACAGCCGGG | 741
ACCTCACCCACATAGTGTTAAGAAAGCGTTTCGTGC | 893
GCGGCGCGTGCGGGGGAGGAGACGGTTCCAGGGGAC | 819
